Experimental data from the supplement of paper PMC3334620.
In all, about 33,000 sequences were measured (“E-score (-0.5 to 0.5)”: median about -0.016, highest 2% from about 0.32 on). The list shows a part of the results.

Molecular target: T1, Stp1 (UniProt B3LFK1)
T1 sequence: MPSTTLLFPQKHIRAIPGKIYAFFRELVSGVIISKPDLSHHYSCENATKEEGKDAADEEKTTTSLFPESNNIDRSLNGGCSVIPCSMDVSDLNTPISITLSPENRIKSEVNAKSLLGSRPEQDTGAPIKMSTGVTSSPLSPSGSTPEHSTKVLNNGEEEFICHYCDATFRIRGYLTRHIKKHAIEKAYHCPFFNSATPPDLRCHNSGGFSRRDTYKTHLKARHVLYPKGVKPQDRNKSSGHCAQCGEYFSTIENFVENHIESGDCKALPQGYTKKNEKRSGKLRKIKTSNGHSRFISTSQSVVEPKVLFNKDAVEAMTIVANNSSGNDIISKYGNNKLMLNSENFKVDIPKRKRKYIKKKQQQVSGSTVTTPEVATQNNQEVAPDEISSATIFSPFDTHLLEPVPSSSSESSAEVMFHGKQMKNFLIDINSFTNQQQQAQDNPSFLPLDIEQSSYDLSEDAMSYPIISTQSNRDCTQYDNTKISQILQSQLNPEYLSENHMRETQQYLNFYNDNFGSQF
Experiment: PBM E-score (8-mer binding enrichment) (E-score (-0.5 to 0.5)); higher = stronger / more preferred TF binding; most listed sequences are background and not binding sites
Details: protein concentration: 200 nM; construct: GST-full length
Experimental: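 Universal 'all 10-mer' protein binding microarrays (Agilent AMADID 015681) probed with GST-tagged S. cerevisiae TFs (full-length or DBD) made by in vitro transcription/translation (PURExpress), about 100-200 nM. Bound TF was detected with fluorescent anti-GST. Each ungapped 8-mer (which stands for itself and its reverse complement) is scored by the PBM enrichment score (E-score), a modified Wilcoxon-Mann-Whitney statistic from -0.5 to +0.5, computed with the Universal PBM Analysis Suite. Scale: above 0.35 generally sequence-specific binding.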

Row | Sequence | PBM E-score
1 | CATGGGAG | -0.212
2 | GATATCAA | 0.161
3 | GAACTGCA | 0.0883
4 | ATCTCAAA | 0.117
5 | GCGACAAA | 0.14
6 | ACACTGAA | 0.259
7 | ACCTCCCC | -0.202
8 | CCCGCCCG | 0.0222
9 | ACGCTCCA | 0.0827
10 | ATACCTCC | -0.265
11 | GCGGTAAA | 0.266
12 | TCATACCA | 0.0532
13 | ACAGGATA | 0.086
14 | AACATACC | -0.0361
15 | TCTCCGAA | -0.0131
16 | AGATTGAA | 0.0661
17 | CCACAATA | -0.0649
18 | CTAATTGA | 0.0893
19 | CGTAGGCA | -0.00045
20 | AATGGCTC | 0.066
21 | GCAATCGC | 0.0377
22 | ATCTGATA | -0.106
23 | ATTGTCTA | 0.155
24 | CTCGGACA | -0.18
25 | GCATACCC | -0.0496

Row | Sequence | PBM E-score
26 | CTCTGCCA | -0.168
27 | CAAACGTC | -0.0561
28 | CCTAACTC | -0.21
29 | GCTCGTTA | -0.0232
30 | ATAACAAC | 0.0997
31 | ATATTAAC | 0.282
32 | ATCGCCTC | 0.356
33 | ATAAACCA | 0.0831
34 | AAAGTATC | 0.118
35 | ACTGCCGG | 0.0822
36 | AGCATTAC | -0.0767
37 | AGTGCTTC | -0.234
38 | GGGATGAA | -0.138
39 | AAAACTTC | 0.1
40 | GAAGGTGA | 0.0707
41 | ACTACTGA | -0.0374
42 | GCTGGAAA | 0.0632
43 | GAGGCATA | 0.224
44 | CATTTCAA | 0.13
45 | AGGAATAG | -0.00933
46 | ACTCACAG | -0.05
47 | CTCCGATC | -0.191
48 | CTCGGCCC | -0.176
49 | TGCCTGAA | -0.177
50 | AATCTCCG | 0.0641

Row | Sequence | PBM E-score
51 | AAGGCCGA | 0.0988
52 | ACCTACGC | -0.0171
53 | CGGCCTCC | -0.107
54 | GAATAGGC | 0.04
55 | AAACGATC | 0.0154
56 | CGCGAACG | 0.103
57 | AGCTGACC | -0.263
58 | AGCATGAT | -0.123
59 | GGGATCCC | -0.172
60 | ATGCCAGC | -0.179
61 | CAGTCTCA | 0.0195
62 | AGGGCACA | 0.334
63 | GATCCTCA | -0.093
64 | ATGGACGC | 0.164
65 | AGACGTAG | -0.139
66 | AGTAACAT | 0.0488
67 | TAACCGAA | -0.0418
68 | CGCTTAAG | 0.0625
69 | ATCTGATC | 0.0183
70 | CCGTCGCC | 0.3
71 | GGTGAATA | 0.0219
72 | AAACAGAC | 0.0566
73 | ACGGACTA | 0.0284
74 | TGCACGCA | -0.0286
75 | CCAAGAAA | 0.0473

Row | Sequence | PBM E-score
76 | AATACTAA | 0.102
77 | AGGGCATC | 0.11
78 | CATGCGTA | 0.0493
79 | GGTAGGAA | -0.0947
80 | ATCAAAAT | 0.151
81 | AACGTTCA | -0.263
82 | CCAAGGTC | -0.0943
83 | GCGGTCTA | -0.0316
84 | AGCAATTG | 0.149
85 | ACGCAGCT | -0.0862
86 | CACTATAA | -0.00554
87 | ATATACTC | -0.156
88 | AGCGTATA | 0.109
89 | AAGCCGGC | -0.0268
90 | GGAACCAC | -0.078
91 | CATCCAGG | -0.122
92 | AGCTCAGG | -0.13
93 | AGTTTTGG | -0.0431
94 | CCTTGTAC | 0.0435
95 | CCCCATAC | -0.00995
96 | CGCTGATC | -0.0938
97 | GTGACCTA | -0.238
98 | CGTGGTAG | 0.0444
99 | AAATCCGA | -0.0377
100 | GCCAGCCA | -0.117

Row | Sequence | PBM E-score
101 | ATGTACCA | -0.0865
102 | CAACTACA | -0.00193
103 | CCCTGGGA | -0.262
104 | GACATGGA | -0.0837
105 | CCTGGAGA | -3e-05
106 | CCTCCTCC | -0.178
107 | GATGTGAC | -0.15
108 | CACTCGAG | -0.0245
109 | GATCGATC | -0.136
110 | CGGTGGAC | -0.15
111 | TACCCGCA | 0.241
112 | CAATGGAG | -0.126
113 | CAAGAAAA | 0.096
114 | AGTCACCG | -0.181
115 | AAAGGGAT | -0.139
116 | GCTTACAA | 0.092
117 | AGCCTCGA | -0.172
118 | ACCCGCGG | 0.228
119 | CTCTCCTC | -0.318
120 | CGTTCTAC | -0.0641
121 | AGAAAGCC | 0.17
122 | GACTTGAA | -0.171
123 | CCCTGAAG | -0.11
124 | AGAAACCC | 0.0212
125 | AGCAGCCA | 0.0221

Row | Sequence | PBM E-score
126 | TAATGTAA | 0.0488
127 | AAGGGCCG | 0.0849
128 | GGTACCCA | -0.177
129 | CGAGCCGA | 0.124
130 | ATGACTCC | -0.185
131 | CTTAGTGA | 0.03
132 | AGACCATA | 0.159
133 | CTCGGGCA | 0.0927
134 | GCAAGTCC | -0.142
135 | CCGCTACA | -0.0852
136 | ATTACCAA | 0.177
137 | AACATGCC | 0.164
138 | ATGCGAAG | 0.0622
139 | CCAAAATA | 0.139
140 | TCCCCCGA | -0.345
141 | ATACTGAG | 0.162
142 | CATGTCAC | 0.0114
143 | AATCGATG | 0.174
144 | AAAGGTAC | -0.00049
145 | CAACAGAA | -0.11
146 | ATTAGAAG | 0.0611
147 | AAATCGAA | 0.0881
148 | GATGGTTA | -0.124
149 | CAGACAAG | -0.0459
150 | CAGGCCAG | -0.0909

Row | Sequence | PBM E-score
151 | CCAGGAGG | -0.109
152 | AGGTTGCA | 0.169
153 | ATCCGAGG | 0.0595
154 | CAAATACG | 0.157
155 | CGGGGTTC | -0.251
156 | CAGTATAC | 0.0563
157 | AACGAATG | 0.0946
158 | AAAGGGAA | -0.116
159 | GGGGGAAA | -0.276
160 | CTAAATGC | 0.146
161 | GGCGCCCA | 0.311
162 | CTGGTGGA | -0.209
163 | AAATCATG | 0.0843
164 | CCGTAAAG | 0.13
165 | CGTAGACA | 0.0241
166 | TGCCCCAA | 0.00852
167 | GAGGTTAC | -0.11
168 | CGCCGAGC | 0.248
169 | CCTTGTGC | -0.0169
170 | GAAAATAC | 0.117
171 | CAAAGAGC | 0.0667
172 | GGAGCCCC | -0.263
